# Reference: ChEMBL document CHEMBL4888484, “Replenishing the malaria drug discovery pipeline: Screening and hit evaluation of the MMV Hit Generation Library 1 (HGL1) against asexual blood stage Plasmodium falciparum ,using a nano luciferase reporter read-out” (2022)
# Several values for one entry are separate records, joined by “and”; a condition that tells them apart may be missing. Equal values may be shown once. About 540 (0.36%) of roughly 150,000 compounds showed an effect of 50% or more. The list shows a part of the results.
# Test system: Plasmodium falciparum
# Test: Primary screen in NF54 nanoGlo assay, in single point, at 2uM, 72h; a lower Z score goes with more inhibition
# Assay type: functional, Erythrocyte
# Settings: timepoint 72 hour
Compound,% Inhibition [%],Z score,% Inhibition (2 µM)
Cc1ccc(NC(=O)N2CCCN(C3=Nc4ccc(C(F)(F)F)cc4Oc4ccccc43)CC2)cc1,-9,1.43,–
CCOc1cc(CNCCCOC)cc(Cl)c1OC,-9,1.33,–
Cc1csc([C@@H](NC(=O)COc2cc(C)on2)C(F)(F)F)n1,-6,1.08,–
COc1cccc(CN2CC=C(C(=O)N3CCN(c4cc(C)ccc4C)CC3)CC2)c1,-5,0.98,–
Cc1ccc2c(c1)[C@H]1OCC[C@H]1C(c1ccccc1)N2 (stereo partly drawn),0,0.08,–
O=C(NCCC(F)(F)F)c1cc(Cl)cc(F)c1Br,-4,0.63,–
Cc1c(CCC(=O)N(Cc2ccco2)c2cccc(F)c2)cnn1C,-2,0.32,–
CC(C)NC(=O)CNC(=O)NCC(=O)NC1CCCCC1,-13,1.16,–
Cc1ccc2c(c1)N(C(=O)CCc1ncc(C(C)(C)C)o1)CCCO2,7,-1.04,–
COCCN1C[C@@H](Cc2ccnc(OC)c2C#N)CC1=O,22,-2.77,–
Cc1cccc(N(C)C(=O)CC[C@H]2CCCO2)n1,-2,0.32,–
CCn1ccc(CN2C(=O)COc3ccc(F)cc32)n1,-5,0.74,–
Cc1cc(C)c(C#N)c(N(C)CCN2CCCC2)n1,-16,2.26,–
Cn1c(CN2C[C@H](Cc3ccccc3)[C@@H](O)C2)cc(=O)n(C)c1=O,-1,0.1,–
CC(C)(C)c1cccc(Oc2nn[nH]n2)c1,33,-1.02,–
Cc1cc(NC(=O)Nc2ccc(Cc3nnc4ccccn34)cc2)on1,7,-1.03,–
O=C(NCc1ccc2c(c1)OCO2)[C@H]1CCN(c2cn[nH]c(=O)c2)C1,-12,2.19,–
CC(=O)N1CCCN(S(=O)(=O)N2CCCCCC2)CC1,-1,0.13,–
Cc1nnc(CN(C)CC2(N3CCOCC3)CCCCC2)o1,-7,1.15,–
COc1ccc(CCNC(=O)c2coc(NC(=O)c3cnccn3)n2)cc1OC,4,-0.53,–
CCCc1nc(CN(C)c2ccc(OC)c(Cl)c2)no1,2,-0.31,–
CS(=O)(=O)NCCNC(=O)NC1(Cc2ccc(Br)cc2)CCCCC1,-2,0.19,–

Compound,% Inhibition [%],Z score,% Inhibition (2 µM)
CCN(C)Cc1cncc(-c2ccc3ccccc3c2)c1,4,-0.63,–
CCCn1nc(C2CCOCC2)nc1-c1ccc(CN)cc1,-10,1.66,–
COCC1(Cn2cnc(-c3ccccc3)c2-c2cnn(C)c2)CCCC1,-6,0.75,–
CN(C)C1COCC1Oc1cc(C(F)(F)F)ccn1 (stereo not drawn),-5,0.73,–
CN(C)S(=O)(=O)N1CCn2nc3c(c2C1)CCC3,18,-2.32,–
COC(=O)c1cc(C)nc2c1c(=O)n(CC(=O)Nc1ccccc1F)c(=O)n2-c1cccc(OC)c1,-1,0.16,–
CCS(=O)(=O)c1ccc(-c2cnn(C)c2)s1,-8,1,–
O=C(NCc1ccccc1)N1C[C@@H](CO)C[C@@H](CN2CCOCC2)C1,-17,1.72,–
CCCC(=O)N(CCOC)CC1(C)CCOCC1,-7,1,–
CCOC(=O)c1ccc(N2C(=O)[C@@H]3[C@H](Cc4ccccc4)N[C@]4(C(=O)Nc5ccccc54)[C@@H]3C2=O)cc1,-8,1.01,–
COc1ccccc1CN(c1ccc2nnnn2n1)C1CC1,-1,0.13,–
COc1cc([C@H]2N(c3ccccn3)C(=O)[C@@H]3CCCN32)cc(OC)c1OC,6,-0.77,–
CN(CC(=O)N1CCCC1)CC1(CO)CCCC1,-5,0.83,–
Cc1cc(C(=O)NCc2c[nH]nn2)no1,-5,0.46,–
CC(C)NC(=O)Cn1ncc(N(C)Cc2ccccc2)cc1=O,-7,1.14,–
C[C@H]1CCCN(S(=O)(=O)N(CCC#N)CCN2CCOCC2)C1,7,-1.15,–
Nc1nccc(-c2cnc(-c3cccc(Cl)c3)s2)n1,-8,1.11,–
CCCNC(=O)CC[C@H]1NC(=O)c2ccccc2NC1=O,2,-0.19,–
CCOc1ncccc1CNc1nc(C2CCCC2)nc2c1CNC2,-3,0.41,–
Cc1csc(CNc2cccc(-n3cnnc3)c2)n1,-5,1.02,–
Cc1nc(C)c(S(=O)(=O)N2CC=C(c3c(F)cccc3F)CC2)s1,-7,0.68,–
CC(CO)C(NC(=O)c1cnc(C2CCCO2)s1)c1ccc(Br)cc1 (stereo not drawn),-3,0.49,–

Compound,% Inhibition [%],Z score,% Inhibition (2 µM)
CCc1c(C(=O)NCc2cccnc2)csc1C,-25,2.31,–
Cc1noc(C)c1C(=O)Nc1n[nH]c(C(C)C)n1,–,–,3% and -12%
Cc1ccc2c(C(=O)NCc3c(C)n[nH]c3C)cc(C)nc2c1,15,-1.96,–
O=C(O)CC[C@@H]1CN(Cc2cccnc2)CC[C@@H]1N1CCN(c2ccccc2F)CC1,15,-2.11,–
NC(=O)N1CCC[C@H](C(=O)OCCC#Cc2ccccc2)C1,-7,0.85,–
Cc1ccc(C(=O)Nc2ccc3c(c2)C(=O)N(C[C@H]2CCCO2)C3=O)cc1,3,-0.32,–
Clc1ccc(-n2nnnc2-c2cnc(-c3cnccn3)nc2-c2cccs2)cc1,-10,1.12,–
Cc1nc(COC(=O)c2ccncc2)oc1C,-7,1.33,–
O=C1Nc2ccc(S(=O)(=O)Nc3ccccc3)cc2C1=O,-11,1.66,–
CCC(=O)c1ccc(Cl)c(S(=O)(=O)NC(=O)COC2CCCCC2)c1,0,0.01,–
c1cnc(-n2ncc3c(N[C@H]4CCOC4)ncnc32)nc1,-9,0.81,–
CC(C)Oc1cc(CNS(=O)(=O)C2Cc3ccccc3C2)ccn1,-2,0.34,–
Cc1cccc(C)c1OCCC(=O)NCC#CCN(C)C,14,-1.87,–
O=C(C1CCCCN1C(=O)C1CC2CCC1C2)N1CCOCC1 (stereo not drawn),-1,0.18,–
Cc1nnc(CN2CCC([C@H](O)c3ccnn3C)CC2)s1,-10,1.48,–
O=C(c1ccoc1)N1CCN(Cc2ccccc2)[C@@H]2CS(=O)(=O)C[C@@H]21,12,-1.53,–
Cc1ccc(-n2nc(C(=O)N(C)c3ccccn3)c3c2CCC3)c(C)c1,-9,1.15,–
O=C(Cc1ccc(Cl)cn1)N1CCNCCC12CCC2,-12,1.95,–
COc1ccc2c(C)nc(N3CCC(C(=O)N[C@H]4CCCc5ccccc54)CC3)nc2c1,-7,1.33,–
CCC(CC)(CC)S(=O)(=O)Cc1nnc2n1CCOC2,1,-0.09,–
COCCc1nc(CO[C@H]2CCCN(C(=O)C3CCC3)C2)no1,-6,0.88,–
O=C(c1cnn(C2CCCCC2)c1)N(CC(F)(F)F)C1CC1,-12,1.53,–

Compound,% Inhibition [%],Z score,% Inhibition (2 µM)
Cc1cc(NC(=O)NC[C@](C)(O)C(C)C)no1,-1,0.19,–
CC(C)CNC(=O)c1cccc(Nc2c(Oc3ccc4c(c3)OCO4)cnn(C)c2=O)c1,3,-0.43,–
Cc1ccc(C(=O)N2CCN(S(=O)(=O)c3cc4c(cc3C)NC(=O)[C@H](C)O4)CC2)cc1,1,-0.14,–
Cc1noc(C)c1CN(C)C(=O)Nc1nncs1,-2,0.31,–
COc1ccc(N2CCN(C(=O)Cn3c(Nc4ccc(F)c(C)c4)nc(C)cc3=O)CC2)cc1,6,-0.9,–
COc1ccc(N2C(=O)[C@@H]3CCCN3[C@H]2c2ccc(C(C)C)cc2)cc1Cl,-3,0.4,–
CC(=O)Nc1ccc(Br)c(C(=O)NCCc2nnc3ccccn23)n1,4,-0.55,–
CCN(CCOc1ccc(Br)cc1)C(=O)c1cc(COC(C)(C)C)on1,-15,1.39,–
Cc1ccc(Nc2nn(CC(=O)NCc3ccc(Cl)cc3)c(N)c2S(=O)(=O)c2ccccc2)cc1,-7,0.86,–
Clc1ccccc1-c1cc(CN[C@H]2CCCOC2)no1,-7,1.19,–
Cc1ocnc1CNC(=O)NC1CCCCC1,-1,0.07,–
CC(c1ccccc1)n1cnc2c1c(=O)n(CC1CCCO1)c(=O)n2-c1ccccc1 (stereo not drawn),-9,1.27,–
OC(CN1CCCCC1Cn1cncn1)c1ccc(F)cc1 (stereo not drawn),-4,0.64,–
N#Cc1ccc(-c2nc(-c3ccc4c(c3)ncn4CCN3CCCC3)no2)cc1,-10,1.66,–
CC(C)C(NC(=O)NC1C2CCOC2C1(C)C)c1ccccn1 (stereo not drawn),2,-0.45,–
O=C(Cc1ccsc1)NCCn1ccc(-c2cnccn2)n1,10,-1.29,–
C#Cc1cccc(N(C)C(=O)C2CCCCC2C(F)(F)F)c1 (stereo not drawn),9,-1.77,–
O=C(CCc1nnc(-c2cc3ccccc3o2)o1)N1CCCCCC1,-15,1.55,–
CCCN(CC(F)(F)F)C(=O)c1csc(NC(C)=O)n1,-12,1.47,–
CN(C[C@H]1COCCO1)c1nc(N)nc2ccc(C(=O)O)cc12,-3,0.24,–
Cc1nnc(NCC2CCOC(C(C)C)C2)o1 (stereo not drawn),-10,1.86,–
